From PubChem BioAssay AID602310 (National Center for Advancing Translational Sciences (NCATS), 2012)
About 310 (0.076%) of roughly 410,000 compounds were called active. The shares of active, inactive and inconclusive entries below differ from those in the screen. Calls follow the shape of the dose curve; as a rule, active = well fitted curve in the direction sought with a large enough effect; inconclusive = small, poorly fitted or top-dose-only effect; inactive = flat fitted curve, though single readings scatter. Potencies of inconclusive entries are doubtful fits and often do not repeat.
Also: nearly all actives have a fitted effect of over 60% in size.
Potency is read from the fitted curve at half-maximal effect; tags tell the direction and shape of the fitted curve.

What follows are compounds tested against DNA dC->dU-editing enzyme APOBEC-3G (Homo sapiens) (UniProt Q9HC16) (assay: qHTS for Inhibitors of Vif-A3G Interactions: qHTS). Details: HeLa A3G-eYFP + Vif (tagged APOBEC3G with the HIV-1 protein that degrades it), YFP fluorescence, overnight; series mostly up to 46.1 µM.
Chain of UniProt Q9HC16 (Q9HC16 whole entry, looked up): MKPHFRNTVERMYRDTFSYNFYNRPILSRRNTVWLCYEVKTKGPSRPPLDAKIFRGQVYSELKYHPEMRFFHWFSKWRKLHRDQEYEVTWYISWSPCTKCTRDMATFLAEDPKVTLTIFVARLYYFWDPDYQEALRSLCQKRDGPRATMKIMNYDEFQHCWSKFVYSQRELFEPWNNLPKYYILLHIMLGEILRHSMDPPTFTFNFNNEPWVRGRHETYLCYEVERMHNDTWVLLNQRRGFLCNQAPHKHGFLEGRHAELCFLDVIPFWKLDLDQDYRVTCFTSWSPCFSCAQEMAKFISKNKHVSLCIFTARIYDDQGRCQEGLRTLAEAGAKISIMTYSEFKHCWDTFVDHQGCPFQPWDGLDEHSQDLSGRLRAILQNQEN
In short: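 HeLa cells stably expressing Vif and C-terminally eYFP-tagged A3G, seeded overnight at 37 deg C, then exposed to compound by pintool overnight at 37 deg C. Rise in yellow fluorescence (Ex 488/Em 500-530, Acumen) marks blocked Vif-driven A3G degradation.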
For `Cc1ccccc1Cn1nnc2c1C(=O)c1ccccc1C2=O`, the Potency was inconclusive: 10 µM [inhibitor, partial curve, poor fit].
With `Cc1ccc(CN=Cc2[nH]c3ccc(Br)c(Cl)c3c2O)cc1` the Potency was inconclusive: 22.4 µM [inhibitor, single point].
`COc1ccc(/C=N\NC(=O)C2COc3ccccc3O2)cc1O` (stereo unspecified) was tested, and the Potency was inconclusive: 8.91 µM [inhibitor, partial curve, poor fit].
With `CCN(CC)S(=O)(=O)c1cc(C(=O)Nc2nncs2)c(Cl)cc1Cl` the Potency was “inactive”.
With `COC(=O)N1C(=O)[C@@](c2ccc(OC)cc2)(C(C)C)N1C(=O)OC` the Potency was inconclusive: 15.8 µM [inhibitor, single point].
For `O=c1c(/C=N/Nc2ccccc2)c(Sc2nnnn2-c2ccccc2)nc2ccccn12`, the Potency was inconclusive: 3.55 µM [inhibitor, partial curve, poor fit].
For `c1ccc(-c2nc(-c3ccco3)cs2)nc1`, the Potency was inconclusive: 35.5 µM [inhibitor, partial curve, poor fit].
With `CCOc1ncccc1C(=O)Nc1ccc(C)c(S(=O)(=O)N2CCCCCC2)c1` the Potency was “inactive”.
With `CCCCOc1ccc(Br)cc1/C(C)=N/NC1=NCCN1` the Potency was inconclusive: 2.82 µM [inhibitor, full curve, poor fit].
In the case of `COc1ccccc1Nc1nc2ccccc2[nH]1`, the Potency is reported as inconclusive: 28.2 µM [inhibitor, single point].
With `O=C1CC(c2cccc(Br)c2)c2cc3c(cc2N1)CCC3` (stereo unspecified) the Potency was inconclusive: 25.1 µM [inhibitor, single point].
For `COC(=O)c1[nH]c2cc(OC)c(OC)cc2c1/C=N/Nc1ccccc1`, the Potency was inconclusive: 35.5 µM [inhibitor, single point].
With `COc1ccc(-c2nc(N)nc(C)c2Oc2ccccc2Br)c(O)c1` the Potency was inconclusive: 6.31 µM [inhibitor, single point].
For `O=S(=O)(Nc1cc(Sc2cccc3cccnc23)c(O)c2ccccc12)c1ccc(F)cc1`, the Potency was inconclusive: 11.2 µM [inhibitor, partial curve, poor fit].
With `S=C1SCN(CCc2ccccc2)CN1CCc1ccccc1` the Potency was inconclusive: 12.6 µM [inhibitor, partial curve, poor fit].
With `CCCCN(C(=O)c1ccc(-c2ccc([N+](=O)[O-])cc2)o1)c1c(N)n(CCCC)c(=O)[nH]c1=O` the Potency was inconclusive: 35.5 µM [inhibitor, single point].
`COc1ccc(C(=O)C[n+]2cc(Br)cc3ccccc32)cc1[N+](=O)[O-]` was tested, and the Potency was inconclusive: 15.8 µM [inhibitor, single point].
In the case of `CN(C)CCC(=O)N1C/C(=C/c2ccccc2)C(=O)/C(=C\c2ccccc2)C1`, the Potency is reported as inconclusive: 3.55 µM [inhibitor, single point].
`CCOc1ccc(C(=O)N2CCC(c3nnc(-c4ccccc4OC)o3)CC2)cc1` was tested, and the Potency was “inactive”.
For `Cc1ccc(NC(=O)C2CC2C)cc1S(=O)(=O)N1CCOCC1` (stereo unspecified), the Potency was inconclusive: 35.5 µM [inhibitor, single point].
`CCOc1cc(CNc2ccc(O)cc2)cc(Cl)c1OCc1ccccc1` was tested, and the Potency was inconclusive: 25.1 µM [inhibitor, single point].
In the case of `CS(=O)(=O)Nc1cccc(C2=NN(S(C)(=O)=O)C(c3ccc4c(c3)OCO4)C2)c1` (stereo unspecified), the Potency is reported as inconclusive: 11.2 µM [inhibitor, partial curve].
In the case of `O=C1C(=C(c2ccccc2)N2CCOCC2)Cc2ccccc21`, the Potency is reported as inconclusive: 3.55 µM [inhibitor, full curve, poor fit].
For `CCOC(=O)/C(=C/c1c(C)n(C)c2ccc([N+](=O)[O-])cc12)C(C)=O`, the Potency was inconclusive: 25.1 µM [inhibitor, single point].
With `CC(=O)C1=C(C)NC(SCC(=O)c2ccc(F)cc2)=C(C#N)C1c1ccco1` (stereo unspecified) the Potency was inconclusive: 22.4 µM [inhibitor, single point].
`COC(=O)c1cc2ccsc2n1Cc1cccc(F)c1` was tested, and the Potency was inconclusive: 11.2 µM [inhibitor, partial curve, poor fit].
`N#C/C(=C/c1ccc(N2CCOCC2)o1)C(=O)NC1CCCCC1` was tested, and the Potency was active: 11.2 µM.
In the case of `COc1ccc(-c2csc(NC(=S)NC(=O)/C=C/c3ccco3)n2)cc1Br`, the Potency is reported as inconclusive: 7.08 µM [inhibitor, partial curve, poor fit].
With `C=CCN(CC=C)c1ccc(/C=C/c2ccnc3ccccc23)cc1` the Potency was inconclusive: 20 µM [inhibitor, single point].
For `CCc1cc(SC#N)cc(C)c1NC(=O)CCl`, the Potency was inconclusive: 20 µM [inhibitor, single point].
For `Cn1c(/C(C#N)=C/c2cccc(O)c2)nc2ccccc21`, the Potency was “inactive”.
`Cc1ccc2c(=O)c(C(=O)c3ccc(Cl)cc3)cn(CC(=O)Nc3ccc4c(c3)OCCO4)c2n1` was tested, and the Potency was inconclusive: 28.2 µM [inhibitor, single point].
`COC(=O)CCc1c(C)c(C(=O)c2cc(OC)c(OC)c(OC)c2)c2ccccn12` was tested, and the Potency was inconclusive: 17.8 µM [inhibitor, single point].
With `CCOC(=O)N/N=C/c1cc(C)n(-c2cccc3ccccc23)c1C` the Potency was inconclusive: 35.5 µM [inhibitor, single point].
In the case of `O=S(=O)(Nc1ccc(C(O)(C(F)(F)F)C(F)(F)F)cc1)c1ccc(Cl)c2nonc12`, the Potency is reported as inconclusive: 10 µM [inhibitor, partial curve].
`CCOC(=O)/C=C/C(=O)Nc1ccccc1C(=O)NC1CCCCC1` was tested, and the Potency was inconclusive: 25.1 µM [inhibitor, single point].
`O=C(Cn1c(COc2ccccc2)nc2ccccc21)Nc1cc(Cl)cc(Cl)c1` was tested, and the Potency was “inactive”.
For `Cc1ccc2[nH]c(=O)c(CN(CCc3ccccc3)C(c3nnnn3Cc3ccco3)C(C)C)cc2c1` (stereo unspecified), the Potency was “inactive”.
`NC(=O)c1cccc(-c2ccnc3c2CC(C(=O)NCc2ccccc2)O3)c1` (stereo unspecified) was tested, and the Potency was inconclusive: 3.98 µM [inhibitor, full curve, poor fit].
In the case of `CCNc1nc(Nc2ccc(C)c(Cl)c2)c2cnn(C)c2n1`, the Potency is reported as “inactive”.
For `CC(=O)Nc1cccc(-c2ccnc3c2CC(C)(C(=O)Nc2cccc(C(C)=O)c2)O3)c1` (stereo unspecified), the Potency was inconclusive: 10 µM [inhibitor, partial curve, poor fit].
